Results from the supplement of paper PMC12217912.
Some of the results follow. Sequences were assembled here from the parent chain. Values near 0.05 are background.

B1: TEV protease; numbered along this chain (parent)
chain: MGESLFKGPRDYNPISSSICHLTNESDGHTTSLYGIGFGPFIITNKHLFRRNNGTLVVQSLHGVFKVKDTTTLQQHLVDGRDMIIIRMPKDFPPFPQKLKFREPQREERICLVTTNFQTKSMSSMVSDTSCTFPSGDGIFWKHWIQTKDGQCGSPLVSTRDGFIVGIHSASNFTNTNNYFTSVPKNFMELLTNQEAQQWVSGWRLNADSVLWGGHKVFMVKPEEPFQPVKEATQL

Variants of: B1
Assay: raw area under fraction-flipped curve 0-4 h after induction (AUC4h, not background-subtracted), DNA-recorder readout of cleavage of the substrate (dimensionless); higher = more cleavage of the substrate by the protease variant
Details: temperature: 34 °C; time window: 0-4 h after rhamnose induction
Experimental: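 In vivo DNA recorder in E. coli TOP10(DE3) ΔrhaA at 34 °C. Each TEVp single-site mutant (parent TEVp 0) is paired with a single-site variant of the 7-mer TEVs (canonical ENLYFQ|S). The substrate sits between flexible linkers in a Bxb1-sfGFP-TEVs-SsrA fusion, so cleavage stabilises Bxb1 and speeds flipping of a recombination array, read by NGS. The value is the raw area under the fraction-flipped curve over 0-4 h after rhamnose induction (AUC4h), with ≥20 reads per time point. It is not background-subtracted; inactive controls average about 0.047.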
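Also: Bxb1 expression induced with 0.2% (w/v) L-rhamnose at OD600 near 0.5, cultures sampled hourly, flipped fraction per protease–substrate barcode pair counted by paired-end Illumina sequencing.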

| Variant | area with substrate CNLYFQS | area with substrate DNLYFQS | area with substrate FNLYFQS | area with substrate GNLYFQS | area with substrate HNLYFQS | area with substrate INLYFQS | area with substrate MNLYFQS | area with substrate PNLYFQS | area with substrate SNLYFQS | area with substrate TNLYFQS | area with substrate WNLYFQS | area with substrate YNLYFQS | area with substrate KNLYFQS | area with substrate QNLYFQS | area with substrate VNLYFQS | area with substrate LNLYFQS | area with substrate NNLYFQS | area with substrate RNLYFQS |
| --- | --- | --- | --- | --- | --- | --- | --- | --- | --- | --- | --- | --- | --- | --- | --- | --- | --- | --- |
| F180N | 0.0587 | 0.0711 | 0.0599 | 0.0534 | 0.0531 | 0.0254 | 0.0443 | 0.0551 | 0.0614 | 0.0575 | 0.0445 | 0.0537 | – | – | – | – | – | – |
| V183H | 0.0479 | 0.0455 | – | 0.0368 | – | 0.054 | 0.0629 | 0.0585 | – | 0.0525 | 0.0576 | 0.0574 | 0.0462 | 0.0639 | 0.0349 | – | – | – |
| L211Q | 0.0556 | 0.0858 | 0.0529 | 0.0908 | 0.0654 | – | 0.0692 | 0.0653 | 0.0701 | – | 0.0522 | 0.0611 | 0.0599 | – | – | 0.0702 | 0.0775 | – |
| K221F | 0.055 | 0.0603 | – | 0.0428 | 0.059 | 0.062 | 0.0715 | 0.0607 | 0.0515 | 0.06 | 0.0563 | 0.043 | 0.06 | 0.0589 | 0.0561 | – | 0.0773 | – |
| M219S | 0.0592 | 0.0694 | 0.0977 | 0.0693 | 0.0555 | 0.0472 | – | 0.0621 | 0.0576 | 0.0598 | 0.0509 | 0.067 | 0.0617 | 0.0561 | – | 0.0573 | 0.0492 | 0.0616 |
| H215C | 0.0552 | 0.0827 | – | – | – | 0.07 | – | – | – | – | 0.0642 | 0.0615 | – | – | 0.0315 | 0.0456 | – | – |
| S209V | 0.105 | 0.0887 | – | 0.0757 | 0.0715 | 0.0749 | 0.0786 | 0.0803 | 0.0618 | 0.0672 | 0.0587 | 0.0801 | – | – | – | – | 0.0693 | – |
| F187M | 0.0855 | 0.0657 | – | 0.0693 | 0.0699 | – | 0.0635 | 0.068 | 0.105 | 0.0377 | 0.0564 | 0.0676 | 0.0672 | – | – | – | 0.0725 | – |
| T192M | 0.0619 | 0.078 | 0.0789 | 0.0703 | 0.0623 | 0.0571 | – | – | – | 0.0673 | 0.044 | 0.0669 | 0.0791 | 0.0852 | 0.0737 | 0.063 | 0.0678 | – |
| S169M | 0.0558 | 0.0593 | 0.0537 | 0.0624 | 0.0674 | 0.0624 | 0.0614 | 0.0613 | – | 0.069 | 0.0318 | 0.0623 | 0.0547 | – | 0.0641 | 0.0654 | – | 0.0658 |
| S169W | 0.0473 | 0.0554 | – | – | 0.0542 | – | – | – | – | – | 0.0786 | – | – | – | – | – | – | – |
| M188P | 0.0236 | 0.008 | – | – | – | – | – | 0.0613 | – | 0.0689 | – | – | – | – | 0.0664 | – | – | – |
| W203N | 0.0614 | 0.0688 | 0.0584 | – | 0.0655 | – | 0.0661 | 0.0545 | 0.0619 | 0.0551 | 0.0519 | – | 0.0718 | 0.0633 | 0.0787 | – | 0.0473 | 0.058 |
| W203G | 0.0519 | 0.0464 | – | 0.0594 | 0.0483 | 0.0606 | – | 0.0603 | – | – | 0.063 | 0.063 | 0.0707 | – | – | 0.0449 | – | 0.0576 |
| N177L | 0.124 | 0.137 | – | 0.0815 | 0.0784 | – | 0.0779 | – | 0.0896 | 0.0928 | 0.0702 | – | – | – | 0.0889 | 0.0839 | – | – |
